Assay results: publication PMC4336329 (PLoS ONE, 2015)
Screen size: about 310,000 compounds; about 14,000 (4.5%) showed an effect of 50% or more. Effects have a minus sign here. The list shows a part of the results.

Target: human ether-à-go-go-related gene (hERG) potassium channel (human, UniProt Q12809)
Test: primary screen, population patch clamp on CHO cells stably expressing hERG
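Also: peak tail current of the secondary pulse compared with the same well before compound.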

human ether-à-go-go-related gene (hERG) potassium channel, sequence (Q12809 whole entry, looked up): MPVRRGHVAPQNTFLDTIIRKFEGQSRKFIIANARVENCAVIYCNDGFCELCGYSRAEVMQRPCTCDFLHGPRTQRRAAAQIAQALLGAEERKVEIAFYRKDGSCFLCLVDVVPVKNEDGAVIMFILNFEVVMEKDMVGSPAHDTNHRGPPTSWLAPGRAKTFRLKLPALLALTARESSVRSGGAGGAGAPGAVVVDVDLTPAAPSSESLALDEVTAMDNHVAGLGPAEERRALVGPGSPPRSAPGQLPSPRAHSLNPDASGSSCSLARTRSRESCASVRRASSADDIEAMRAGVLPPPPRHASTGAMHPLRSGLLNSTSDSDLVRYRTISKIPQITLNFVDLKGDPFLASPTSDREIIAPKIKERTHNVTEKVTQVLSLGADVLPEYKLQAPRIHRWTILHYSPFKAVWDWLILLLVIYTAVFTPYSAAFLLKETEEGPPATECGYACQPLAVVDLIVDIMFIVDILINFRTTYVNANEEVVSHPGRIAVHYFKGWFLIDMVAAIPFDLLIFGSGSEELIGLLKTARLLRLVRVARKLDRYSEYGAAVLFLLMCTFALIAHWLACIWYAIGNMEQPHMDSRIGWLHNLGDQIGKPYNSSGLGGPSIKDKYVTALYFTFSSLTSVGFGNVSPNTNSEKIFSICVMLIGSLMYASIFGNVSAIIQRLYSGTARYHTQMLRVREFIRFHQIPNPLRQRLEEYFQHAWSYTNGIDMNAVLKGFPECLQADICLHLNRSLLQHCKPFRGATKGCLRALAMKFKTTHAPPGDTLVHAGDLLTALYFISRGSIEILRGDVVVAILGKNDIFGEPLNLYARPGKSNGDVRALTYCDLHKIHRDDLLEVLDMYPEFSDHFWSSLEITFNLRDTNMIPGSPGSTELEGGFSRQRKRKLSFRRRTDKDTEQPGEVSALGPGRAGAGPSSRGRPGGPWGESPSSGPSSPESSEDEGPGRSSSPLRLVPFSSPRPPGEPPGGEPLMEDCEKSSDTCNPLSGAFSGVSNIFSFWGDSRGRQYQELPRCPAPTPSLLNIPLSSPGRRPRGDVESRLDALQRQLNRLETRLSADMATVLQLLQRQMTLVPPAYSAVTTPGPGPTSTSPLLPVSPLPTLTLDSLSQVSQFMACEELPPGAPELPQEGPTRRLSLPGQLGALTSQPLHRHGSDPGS

| Structure (SMILES) | hERG current change (%, negative = inhibition) at 10uM [%] |
| --- | --- |
| O=C(CSc1nc2c(sc3ccccc32)c(=O)n1CCCN1CCOCC1)NC1CCCC1 | -64.7 |
| Cc1nc(C)c(C(=O)OCC(=O)Nc2cccc(C)c2C)s1 | -1.38 |
| Cc1nc(-c2ccc(Cl)cc2)sc1C1(C)CC(c2ccccc2)=NO1 (stereo not drawn) | 12.5 |
| CN(C)S(=O)(=O)c1ccc(Cl)c(NC(=O)COC(=O)c2ccc(O)cc2)c1 | 0.26 |
| O=C(NCCNC(=O)c1ccccn1)c1cccc(F)c1 | 23.7 |
| CC(C)c1nc2sc3c(=O)[nH]cnc3c2c2c1CCCC2 | 12.1 |
| Cc1ccc2[nH]c(=O)c3cc(C(=O)NCCN4CCN(C)CC4)sc3c2c1 | 2.64 |
| COc1ccc(/C(N)=C/C(=O)C(C)(C)C)cc1 | -5.64 |
| N#CCn1cnc2c(oc3ccccc32)c1=O | 8.96 |
| CCOC(=O)c1ccc(NC(=O)NCc2ccncc2)cc1 | 1.76 |
| CCn1ccnc1CNCc1ccc(OCC(O)CN(C)Cc2ccccc2)cc1 (stereo not drawn) | -11.7 |
| COc1cc(OC)cc(C(=O)NC(=S)Nc2nnn(C)n2)c1 | 12.7 |
| CN1CCN(C(=S)c2ccc(Br)cc2)CC1 | -35.9 |
| O=C(Nc1ccc(N2CCOCC2)cc1)c1cccc(-n2cnnc2)c1 | 17 |
| Cc1ccc(OCCCCc2c(C)n[nH]c2C)cc1 | -2.3 |
| COc1ccc(C(=O)Nc2ccccc2C(=O)NC(Cc2ccc(O)cc2)C(=O)NNC(=O)c2ccccc2Cl)cc1 (stereo not drawn) | 21.2 |
| COC(=O)c1sccc1NC(=S)N1CCN(c2cc(C)ccc2C)CC1 | 20.2 |
| COc1cccc(CNCC(O)(c2ccc(Cl)cc2)c2ccc(Cl)cc2)c1 | -12.2 |
| O=C(Nc1nc2c(s1)CCCC2)c1cc(-c2ccc3c(c2)OCO3)nc2ccccc12 | 6.66 |
| Cc1cccc(N2C(=O)N3[C@@H]4c5ccccc5OC[C@@H]4[C@@H](c4ccccc4)[C@@]3(C)C2=O)c1 | 12.8 |
| COCCN(CC(=O)Oc1ccccc1P(=O)(OC)OC)Cc1ccccc1 | 7.73 |
| COc1ccccc1CNC(=O)C1=C(C)C(=O)OC12CCC(C)CC2 (stereo not drawn) | -2.21 |
| CSc1ccc(/C=N/n2c(COc3ccccc3)n[nH]c2=S)cc1 | 21.6 |
| CC(C)(CNC(=O)CC1C(=O)NCCN1Cc1cccc(F)c1F)N1CCOCC1 (stereo not drawn) | 29 |
| O=C(O)c1cn(Cc2ccccc2Cl)c2ccc(S(=O)(=O)N3CCOCC3)cc2c1=O | -12.1 |
| COc1ccc(C2NC(=O)CCC2[N+](=O)[O-])c(OC)c1 (stereo not drawn) | 1.25 |
| C#Cc1ccc([C@H]2C=C(C(=O)NCc3nc4ccccc4[nH]3)O[C@@H](OCC)[C@@H]2CCCO)cc1 | -21.9 |

| Structure (SMILES) | hERG current change (%, negative = inhibition) at 10uM [%] |
| --- | --- |
| Cc1cs/c(=N\N=C\c2ccccc2)n1Cc1ccco1 | 4.35 |
| COCCNC(=O)CC(=O)N/N=C/c1cccc(C(=O)OC)c1 | 7.31 |
| CCOc1ccc(NC(=O)CN(C)C(=O)c2cccnc2Sc2ccccc2Cl)cc1OCC | -8.63 |
| CN(C)CCN(C(=O)C1CCCCC1)c1nc2cc3c(cc2s1)OCO3.Cl | -9.7 |
| COc1ccc(C)cc1S(=O)(=O)N1CCC2(CC1)OCCN2S(=O)(=O)c1ccccc1 | 15.3 |
| Cc1ccccc1-c1nc(CS(=O)(=O)CC(=O)NCCCN2CCN(C)CC2)c(C)o1 | -0.595 |
| O=C(COC(=O)c1cc([N+](=O)[O-])ccc1N1CCOCC1)NC1CCS(=O)(=O)C1 (stereo not drawn) | 11.9 |
| COc1ccccc1NC(=O)c1ccc(COc2ccccc2OC)cc1 | 10 |
| Cc1ccnc2c1NC(=O)c1cccnc1N2C1CC1 | -2.19 |
| CCC(=O)c1ccc(OCC(O)CN2CCN(c3ccccn3)CC2)cc1 (stereo not drawn) | -34 |
| O=C(NC1CC2CCC(C1)N2Cc1ccccc1)c1ccccc1Br (stereo not drawn) | -20.1 |
| O=C(c1ccccc1NS(=O)(=O)c1cccc([N+](=O)[O-])c1)N1CCOCC1 | -9.85 |
| Cc1ccc(C(=O)COC(=O)C(C)N2C(=O)C3C4C=CC(C4)C3C2=O)cc1 (stereo not drawn) | -1.78 |
| CCCN(CCC)CCCNS(=O)(=O)c1ccc2c(c1)oc(=O)n2C | 3.44 |
| O=C(COc1ccccc1F)NNC(=O)c1cccc(-n2cccc2)c1 | 5.68 |
| O=C(c1ccco1)N1CCN(C(=O)C2CCN(S(=O)(=O)c3cnc[nH]3)CC2)CC1 | 13.6 |
| COc1cc(/C=C/c2ccc3cccc(OC)c3n2)c(OC(C)=O)c([N+](=O)[O-])c1 | 2.34 |
| Cc1nn(-c2ccccc2)c(Cl)c1C1C(C#N)=C(N)Oc2c1c(=O)oc1ccccc21 (stereo not drawn) | 6.87 |
| O=C(CSc1ncccn1)NCCC1=CCCCC1 | -11.3 |
| CCOC(=O)c1cc(=O)cc(C(=O)OCC)o1 | 6.87 |
| CC1CN(S(=O)(=O)c2cccc(C(=O)Nc3ccccc3N3CCCC3)c2)CC(C)O1 (stereo not drawn) | -45.3 |
| COc1ccc(S(=O)(=O)Nc2cccc(-c3ccc(N4CCCCCC4)nn3)c2)cc1OC | 7.72 |
| CC(NC(=O)CCNC(=O)c1ccc(Br)cc1)c1ccc(S(N)(=O)=O)cc1 (stereo not drawn) | 15.3 |
| COc1cccc(C2Nc3c(F)cc(Br)cc3C3C=CCC32)c1OC (stereo not drawn) | 9.51 |
| CCOC(=O)N=Nc1c(O)n(C)c2ccccc12 | -7.81 |
| COc1ccccc1CN1C[C@@H]2C[C@@H](c3ccc4nsnc4c3)N3CCC[C@@]23C1=O | -22.6 |
| O=C(/C=C/c1ccc(Br)cc1)NC(=S)N1C[C@H]2C[C@H](C1)c1cccc(=O)n1C2 | -57.9 |
